Experimental data taken from ChEMBL document CHEMBL4888484, “Replenishing the malaria drug discovery pipeline: Screening and hit evaluation of the MMV Hit Generation Library 1 (HGL1) against asexual blood stage Plasmodium falciparum ,using a nano luciferase reporter read-out” (2022).
Among all 150,000 compounds or so, about 540 (0.36%) showed an effect of 50% or more. Some of the results follow.

What follows are compounds tested on Plasmodium falciparum (assay: Primary screen in NF54 nanoGlo assay, in single point, at 2uM, 72h; a lower Z score goes with more inhibition). Conditions: timepoint 72 hour.
Assay type: functional, Erythrocyte

| Structure (SMILES) | % Inhibition [%] | Z score |
| --- | --- | --- |
| C[C@H](NC(=O)C1CCOCC1)c1ccc(Cl)s1 | 1 | -0.15 |
| CCN(Cc1cccs1)C(=O)c1cccc(S(=O)(=O)N2CC(C)CC(C)C2)c1 (stereo not drawn) | 4 | -0.37 |
| CCOC(=O)N1CCN(C(=O)c2noc3c2C[C@@H](C(C)(C)C)CC3)CC1 | -37 | 4.29 |
| CCCN1C(=O)c2cc(S(=O)(=O)N(C)Cc3ccccc3)ccc2Oc2cccnc21 | 2 | -0.36 |
| CCOc1ccccc1N(C)Cc1noc(C2CC2)n1 | -7 | 0.97 |
| COc1ccc(OC)c(CNC(=O)CN2C(=O)CCn3nc(-c4cccc(Cl)c4)cc32)c1 | 4 | -0.44 |
| Cc1oc(-c2[nH]ncc2C(=O)N2CCOCC2)cc1S(=O)(=O)N1CCN(C)CC1 | -4 | 0.57 |
| Cc1ccc(-c2nn(Cc3cccnc3)c(=O)n2C)s1 | -6 | 0.91 |
| CCOc1ccnc(N2CC[C@H](O)CC(C)(C)C2)n1 | -12 | 1.33 |
| O=C(c1ccc(Nc2c(Oc3ccccc3)cnn(-c3ccccc3)c2=O)cc1)N1CCCCC1 | 12 | -1.25 |
| CO[C@@H](CNC(=O)C(=O)NCc1ccc(F)cc1)c1cc2ccccc2o1 | -21 | 3.62 |
| C[C@@H](Cn1cnc2ccccc2c1=O)NCC1(CO)CCC1 | 3 | -0.39 |
| Cc1ccccc1CN1CCn2c(nn(C)c2=O)C1 | -14 | 2.46 |
| CC(C)c1ccnc(NC[C@@H](c2ccco2)N(C)C)n1 | -8 | 1.51 |
| Cc1nn(C)c2nc(N3CCC(OCCN(C)C)CC3)sc12 | -7 | 1.04 |
| CC1(C)CN(C(=O)[C@@H]2CCc3cc(F)ccc32)CCO1 | 2 | -0.33 |
| CC1C(C(F)(F)F)OCCN1C(=O)c1ncc2ccccc2c1O (stereo not drawn) | -15 | 1.39 |
| C[C@H]1Cc2cc(S(=O)(=O)N3CCC(C(=O)NCc4ccccc4)CC3)ccc2N1C(=O)C1CCC1 | -8 | 1.35 |
| COc1ccccc1CNC(=O)c1ccc2c(c1)N(C(=O)c1ccc(F)cc1)CC2 | -6 | 0.73 |
| O=C(CC[C@@H]1NC(=O)c2ccccc2N=C1O)NCCc1ccc(Cl)cc1 | -10 | 1.15 |
| Cc1[nH]c(CN2CCC(C)(C(=O)N(C)C)CC2)cc1C#N | -9 | 1.8 |
| CCOC(=O)c1ncn2c(N)c(C(=O)Nc3cccc(Cl)c3)nnc12 | -9 | 1.02 |
| COCCNC(=O)c1cc2cc(NS(=O)(=O)c3ccc(C(C)(C)C)cc3)ccc2n1Cc1cc(C)ccc1C | 11 | -1.36 |
| CCCn1cc(CN2CCC(O)(C(F)(F)F)CC2)cn1 | -8 | 1.02 |
| Fc1ccc(C2(c3nc(C4CC4)no3)CC2)cc1 | -14 | 2.06 |
| c1ncc2c(n1)CN(CCCOc1ccc3c(c1)OCO3)CC2 | -5 | 0.76 |
| CC(C)c1nc(CCNS(=O)(=O)C2(C)CC2)cs1 | -5 | 0.61 |

| Structure (SMILES) | % Inhibition [%] | Z score |
| --- | --- | --- |
| Cc1cc(-n2nc(C)nc2-c2ccc(C#CC(C)(C)O)o2)ccn1 | -16 | 2.49 |
| CC1(C)CC[C@H](CO)N(c2cc(-n3ccnc3)ncn2)C1 | -21 | 2.6 |
| CC(C)(C)c1nnc2n1CCN(Cc1ccc(S(C)(=O)=O)o1)C2 | 1 | -0.24 |
| Cc1nn(C)c2nc(-c3cccnc3)nc(N(C)CC[C@H]3CCCCO3)c12 | 0 | 0.04 |
| CO[C@@H](C)C(=O)N1CCC(CNC(=O)c2ccoc2)CC1 | 4 | -0.83 |
| Cc1nn([C@@H](C)C(=O)NC2CCCC2)c2ccccc12 | -12 | 1.71 |
| O=c1n(Cc2cccc(NS(=O)(=O)c3cn[nH]c3)c2)nc2ccccn12 | -4 | 0.71 |
| CC(C)c1nccc(CN(C)[C@@H](C)c2ccc3c(c2)OCCO3)n1 | -3 | 0.42 |
| O=C(NC[C@]1(OCCO)CCOC1)c1ccc(Cl)s1 | 4 | -0.47 |
| Cc1cc(=O)[nH]c(CCNC(=O)[C@@H](N)Cc2c[nH]c3ccccc23)n1 | -3 | 0.31 |
| COc1ccc(CN(CC(=O)Nc2ccc(C(N)=O)cc2)S(=O)(=O)c2cccnc2)cc1 | 6 | -0.84 |
| COc1ccc(-c2cn3c(C(=O)N4CCCCC4)csc3n2)cc1F | -20 | 2.98 |
| CO[C@H]1COCC[C@@H]1NC(=O)c1ccc(C#CC(C)(C)O)o1 | 1 | -0.19 |
| CCCCN(C)C(=O)NCCc1noc(C(C)C)n1 | 1 | -0.14 |
| Cc1nn(C)c(C)c1CNc1cc(C(C)(C)C)on1 | -7 | 0.66 |
| O=C(O)C1CCN(C(=O)C2CC=CCC2c2nc3ccccc3s2)CC1 (stereo not drawn) | 0 | 0.01 |
| COCCN(Cc1cn2ccc(C)cc2n1)Cc1ccc(C)s1 | -9 | 1.55 |
| Cc1ncsc1C(=O)OC1CCN(CC(F)F)CC1 | -12 | 1.47 |
| CNC(=O)[C@@H]1CCCN1C(=O)CNC(=O)c1cccc2c1OCC2 | -5 | 0.71 |
| CCc1noc(C)c1C(=O)Nc1ccc2c(c1)OCCCO2 | -6 | 0.93 |
| CCc1nc(CNC(=O)N(C)Cc2ccnc(C)c2)no1 | -2 | 0.38 |
| Cc1cnn([C@@H](C)CNc2ncnc3c2c(C)nn3C)c1 | 6 | -0.73 |
| C[C@@H]1CN(C(=O)c2c[nH]c3cccc(F)c23)C[C@H](C)N1CCO | 1 | -0.14 |
| CC(NC(=O)N1C[C@@H](CO)[C@H](C)C1)c1ccc(Br)cn1 (stereo partly drawn) | -7 | 0.86 |
| CC[C@H]1CN(S(=O)(=O)c2ccc3c(c2)C(=O)NCC3)c2ccccc2O1 | -6 | 0.69 |
| CN(C)c1ccc(NC(=O)c2ccc3c(c2)OCCO3)cn1 | -13 | 1.15 |
| O=c1[nH]nc2ccc(S(=O)(=O)N3CCc4ccccc4C3)cn12 | -15 | 1.73 |
